The source gives no read counts; variants with many changes may rest on few reads.
B1: CPEB3 Ribozyme (parent)
chain: UAACAGGGGGCCACAGCAGAAGCGUUCACGUCGCAGCCCCUGUCAGAUUCUGGUGAAUCUGCGAAUUCUGCUGUAUAUCUC

Variants of: B1
Experiment: self-cleavage, relative activity (ratio to wild type); higher = more cleavage; in vitro, sequencing
Outline: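 Relative activity compares each variant's cleaved/total read fraction with that of the unmutated ribozyme. To get these fractions, barcoded CPEB3 ribozyme libraries from rounds of error-prone PCR were transcribed with T7 RNA polymerase for 5 hours at 37°C and then given 15 min of DNase I treatment before EDTA was added. The RNAs were reverse transcribed with template switching and sequenced on Illumina, and DNA sequencing linked barcodes to variants. A minimum of 5 reads applied, and three batches were averaged.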

| Variant | self-cleavage |
| --- | --- |
| A5G A20G U25C U26C G33U U43A U78C | 0.09 |
| A5G A20G U31C A64U U67A | 0.52 |
| A5G A20G U31C A64U U69C | 0.21 |
| A5G A20G U41A A56U A75G U78C | 0.05 |
| A5G A20G U43A U49A | 0.48 |
| A5G A20G U48C G73A | 0.65 |
| A5G A20G U54A | 0.79 |
| A5G A20G U60C A64G | 0.28 |
| A5G A20U A21G | 0.43 |
| A5G A20U C23A A45U U51A U60C | 0.08 |
| A5G A20U C39A U69A U72A | 0.14 |
| A5G A20U G33A U48C | 0.32 |
| A5G A20U U26G A28G U54C U58C U67C | 0.28 |
| A5G A20U U48C | 0.11 |
| A5G A20U U48C U67C | 0.05 |
| A5G A20U U49C | 0.1 |
| A5G A20U U60A | 0.31 |
| A5G A20U U76G | 0.37 |
| A5G A21G A28G U43A | 0.17 |
| A5G A21G A35G A57G U60C A64G U78A | 0.19 |
| A5G A21G A45G A56U U60C C71G U76A | 0.03 |

| Variant | self-cleavage |
| --- | --- |
| A5G A21G A45G U60C U69C A77U | 0.3 |
| A5G A21G A45G U72C | 0.12 |
| A5G A21G A47G | 0.41 |
| A5G A21G A47G U54A U60C | 0.3 |
| A5G A21G A64G U72A U80C | 0.43 |
| A5G A21G A75G | 0.12 |
| A5G A21G A75U | 0.82 |
| A5G A21G C23U A35C A57U | 0.07 |
| A5G A21G C38U U54G U67C A75G | 0.15 |
| A5G A21G U25C C37U A47C G70C U78C | 0.05 |
| A5G A21G U26C A64G | 0.1 |
| A5G A21G U26C U66A U74A | 0.44 |
| A5G A21G U31C U41C U43G | 0.09 |
| A5G A21G U31G A56G | 0.5 |
| A5G A21G U54C A64U U74A | 0.11 |
| A5G A21G U72A | 0.16 |
| A5G A21U U41A U54G | 0.06 |
| A5G A28C A35U U54C U58C | 0.23 |
| A5G A28G A35U A45G U49A A57G | 0.2 |
| A5G A28G A35U C40A | 0.1 |
| A5G A28G A35U U54C | 0.08 |

| Variant | self-cleavage |
| --- | --- |
| A5G A28G U31A U43A | 0.41 |
| A5G A28G U31C | 0.49 |
| A5G A28G U41A U49C U72C U80C | 0.12 |
| A5G A28G U41C C79U | 0.49 |
| A5G A28G U43A A45U A65G U72C U80C | 0.03 |
| A5G A28G U43C U49C A56G | 0.48 |
| A5G A28G U48C U51A U69C U72A U78A | 0.24 |
| A5G A28G U49C U54G | 0.19 |
| A5G A28G U51C | 0.41 |
| A5G A28G U54C A56G G63A C79A U80C | 0.16 |
| A5G A28U A35U G36A A47U U60A | 0.27 |
| A5G A28U G33U | 0.29 |
| A5G A28U U49A G55U A77U | 0.46 |
| A5G A35G G53A | 1.22 |
| A5G A35G G63C | 1.15 |
| A5G A35G U49C A77U | 0.26 |
| A5G A35G U54A A57U | 1.08 |
| A5G A35G U54C A56G A57G U60A | 0 |
| A5G A35G U60C U72C | 0.46 |
| A5G A35G U80A | 1.32 |
| A5G A35U U41A | 0.16 |

| Variant | self-cleavage |
| --- | --- |
| A5G A35U U43C U51A U54C | 0.16 |
| A5G A35U U49A U60C | 0.12 |
| A5G A35U U74G | 0.55 |
| A5G A45C U60C A65G | 0.27 |
| A5G A45G A57G A65G U74A | 0.35 |
| A5G A45G A64G | 0.62 |
| A5G A45G U48C U60C | 0.51 |
| A5G A45G U51C A56G U78C | 0.23 |
| A5G A45G U58C G63A C71G | 0.13 |
| A5G A45G U60C G70A U72C | 0.06 |
| A5G A45G U66C | 0.22 |
| A5G A45G U69A U80A | 0.37 |
| A5G A45U G63U U72A U80C | 0.15 |
| A5G A45U U49C G70C | 0.12 |
| A5G A45U U54C U60G | 0.4 |
| A5G A45U U80C | 0.34 |
| A5G A47G U54A U60C | 0.34 |
| A5G A47G U72A | 0.53 |
| A5G A47U A56G U69G | 0.16 |
| A5G A47U A57U | 0.4 |

From the RNAGym collection of RNA variant scans (doi:10.1093/nar/gkz1192)
